Measured values taken from patent US20200325238A1 (Hoffmann-La Roche, published 2020).

What was measured:
[1] = molecular target: T1, human 4-1BB (human, UniProt Q07011 24-186); experiment: flow cytometry on human PBMCs pre-activated 48 h with anti-CD3/anti-CD28 beads, gated on activated CD8 T cells, constructs 1 h at 4 °C, PE anti-human IgG secondary
T1 construct: also called CD137

[2] = molecular target: T2, human CD19 (human, UniProt P15391 20-556); experiment: flow cytometry on human PBMCs gated on living CD3- CD20+ B cells, constructs 1 h at 4 °C, PE anti-human IgG secondary
T2 construct: Endogenous CD19 on primary human B cells (PBMCs) or on the CD19 positive tumor cell line WSU-DLCL2; also called B-lymphocyte antigen CD19
T2 sequence: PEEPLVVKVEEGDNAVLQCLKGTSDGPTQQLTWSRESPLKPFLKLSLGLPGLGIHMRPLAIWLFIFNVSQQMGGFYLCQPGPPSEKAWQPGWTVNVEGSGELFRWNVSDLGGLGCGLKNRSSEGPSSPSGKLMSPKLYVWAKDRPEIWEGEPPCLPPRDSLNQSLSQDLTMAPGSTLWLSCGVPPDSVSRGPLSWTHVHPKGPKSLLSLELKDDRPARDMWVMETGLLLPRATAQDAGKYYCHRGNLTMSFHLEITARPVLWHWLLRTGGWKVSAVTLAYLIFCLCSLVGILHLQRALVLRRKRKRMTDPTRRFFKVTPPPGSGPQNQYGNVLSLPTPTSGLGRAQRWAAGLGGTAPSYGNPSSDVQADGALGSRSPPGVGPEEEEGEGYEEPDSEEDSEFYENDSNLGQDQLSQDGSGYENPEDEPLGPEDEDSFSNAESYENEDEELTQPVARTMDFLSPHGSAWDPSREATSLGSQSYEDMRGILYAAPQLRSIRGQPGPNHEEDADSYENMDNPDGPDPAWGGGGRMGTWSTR

[3] = molecular target: T1, human 4-1BB; experiment: flow cytometry on human PBMCs pre-activated 48 h with anti-CD3/anti-CD28 beads, gated on activated CD4 T cells, constructs 1 h at 4 °C, PE anti-human IgG secondary

Row | Binder | EC50 (read off the curve) [1] [µg/mL] | EC50 (read off the curve) [2] [µg/mL] | EC50 (read off the curve) [3] [µg/mL] | binding result [2]
1 | mono CD19(018)-4-1BBL (Charged variant) (Fc fusion, human IgG1 Fc, knob-into-hole, P329G LALA; also called monovalent CD19(018)-4-1BBL; Construct 3.4) heavy: QVQLVQSGAEVKKPGASVKVSCKASGYTFTDYIMHWVRQAPGQGLEWMGYINPYNDGSKYTEKFQGRVTMTSDTSISTAYMELSRLRSDDTAVYYCARGTYYYGSALFDYWGQGTTVTVSSASTKGPSVFPLAPSSKSTSGGTAALGCLVKDYFPEPVTVSWNSGALTSGVHTFPAVLQSSGLYSLSSVVTVPSSSLGTQTYICNVNHKPSNTKVDKKVEPKSCDKTHTCPPCPAPEAAGGPSVFLFPPKPKDTLMISRTPEVTCVVVDVSHEDPEVKFNWYVDGVEVHNAKTKPREEQYNSTYRVVSVLTVLHQDWLNGKEYKCKVSNKALGAPIEKTISKAKGQPREPQVCTLPPSRDELTKNQVSLSCAVKGFYPSDIAVEWESNGQPENNYKTTPPVLDSDGSFFLVSKLTVDKSRWQQGNVFSCSVMHEALHNHYTQKSLSLSPGK light: DIVMTQTPLSLSVTPGQPASISCKSSQSLENPNGNTYLNWYLQKPGQSPQLLIYRVSKRFSGVPDRFSGSGSGTDFTLKISRVEAEDVGVYYCLQLTHVPYTFGQGTKLEIKRTVAAPSVFIFPPSDEQLKSGTASVVCLLNNFYPREAKVQWKVDNALQSGNSQESVTEQDSKDSTYSLSSTLTLSKADYEKHKVYACEVTHQGLSSPVTKSFNRGEC chain 1: REGPELSPDDPAGLLDLRQGMFAQLVAQNVLLIDGPLSWYSDPGLAGVSLTGGLSYKEDTKELVVAKAGVYYVFFQLELRRVVAGEGSGSVSLALHLQPLRSAAGAAALALTVDLPPASSEARNSAFGFQGRLLHLSAGQRLGVHLHTEARARHAWQLTQGATVLGLFRVTPEIPAGLGGGGSGGGGSREGPELSPDDPAGLLDLRQGMFAQLVAQNVLLIDGPLSWYSDPGLAGVSLTGGLSYKEDTKELVVAKAGVYYVFFQLELRRVVAGEGSGSVSLALHLQPLRSAAGAAALALTVDLPPASSEARNSAFGFQGRLLHLSAGQRLGVHLHTEARARHAWQLTQGATVLGLFRVTPEIPAGLGGGGSGGGGSRTVAAPSVFIFPPSDRKLKSGTASVVCLLNNFYPREAKVQWKVDNALQSGNSQESVTEQDSKDSTYSLSSTLTLSKADYEKHKVYACEVTHQGLSSPVTKSFNRGE[human IgG1 Fc with changes left out] chain 2: REGPELSPDDPAGLLDLRQGMFAQLVAQNVLLIDGPLSWYSDPGLAGVSLTGGLSYKEDTKELVVAKAGVYYVFFQLELRRVVAGEGSGSVSLALHLQPLRSAAGAAALALTVDLPPASSEARNSAFGFQGRLLHLSAGQRLGVHLHTEARARHAWQLTQGATVLGLFRVTPEIPAGLGGGGSGGGGSASTKGPSVFPLAPSSKSTSGGTAALGCLVEDYFPEPVTVSWNSGALTSGVHTFPAVLQSSGLYSLSSVVTVPSSSLGTQTYICNVNHKPSNTKVDEKVEPKSC | ~0.3 | ~0.3 | ~0.3 | –
2 | mono untargeted DP47-4-1BBL (Fc fusion, used here, to be rechecked; also called mono untargeted 4-1BBL; monovalent untargeted 4-1BBL) heavy: [about 100 residues left out]GSGFDYWGQGTLVTVSSASTKGPSVFPLAPSSKSTSGGTAALGCLVKDYFPEPVTVSWNSGALTSGVHTFPAVLQSSGLYSLSSVVTVPSSSLGTQTYICNVNHKPSNTKVDKKVEPKSCDKTHTCPPCPAPEAAGGPSVFLFPPKPKDTLMISRTPEVTCVVVDVSHEDPEVKFNWYVDGVEVHNAKTKPREEQYNSTYRVVSVLTVLHQDWLNGKEYKCKVSNKALGAPIEKTISKAKGQPREPQVCTLPPSRDELTKNQVSLSCAVKGFYPSDIAVEWESNGQPENNYKTTPPVLDSDGSFFLVSKLTVDKSRWQQGNVFSCSVMHEALHNHYTQKSLSLSPGK light: [about 100 residues left out][about 100 residues left out] chain 1: REGPELSPDDPAGLLDLRQGMFAQLVAQNVLLIDGPLSWYSDPGLAGVSLTGGLSYKEDTKELVVAKAGVYYVFFQLELRRVVAGEGSGSVSLALHLQPLRSAAGAAALALTVDLPPASSEARNSAFGFQGRLLHLSAGQRLGVHLHTEARARHAWQLTQGATVLGLFRVTPEIPAGLGGGGSGGGGSREGPELSPDDPAGLLDLRQGMFAQLVAQNVLLIDGPLSWYSDPGLAGVSLTGGLSYKEDTKELVVAKAGVYYVFFQLELRRVVAGEGSGSVSLALHLQPLRSAAGAAALALTVDLPPASSEARNSAFGFQGRLLHLSAGQRLGVHLHTEARARHAWQLTQGATVLGLFRVTPEIPAGLGGGGSGGGGSRTVAAPSVFIFPPSDEQLKSGTASVVCLLNNFYPREAKVQWKVDNALQSGNSQESVTEQDSKDSTYSLSSTLTLSKADYEKHKVYACEVTHQGLSSPVTKSFNRGE[human IgG1 Fc with changes left out] chain 2: REGPELSPDDPAGLLDLRQGMFAQLVAQNVLLIDGPLSWYSDPGLAGVSLTGGLSYKEDTKELVVAKAGVYYVFFQLELRRVVAGEGSGSVSLALHLQPLRSAAGAAALALTVDLPPASSEARNSAFGFQGRLLHLSAGQRLGVHLHTEARARHAWQLTQGATVLGLFRVTPEIPAGLGGGGSGGGGSASTKGPSVFPLAPSSKSTSGGTAALGCLVKDYFPEPVTVSWNSGALTSGVHTFPAVLQSSGLYSLSSVVTVPSSSLGTQTYICNVNHKPSNTKVDKKVEPKSC | – | – | – | no binding (tested: 50 µg/ml)
3 | bi CD19(018)-4-1BBL (Fc fusion, human IgG1 Fc, knob-into-hole, P329G LALA; 4-1BBL fused to the C-termini of the Fc chains; also called bivalent CD19(018)-4-1BBL; Construct 3.6) light: DIVMTQTPLSLSVTPGQPASISCKSSQSLENPNGNTYLNWYLQKPGQSPQLLIYRVSKRFSGVPDRFSGSGSGTDFTLKISRVEAEDVGVYYCLQLTHVPYTFGQGTKLEIKRTVAAPSVFIFPPSDEQLKSGTASVVCLLNNFYPREAKVQWKVDNALQSGNSQESVTEQDSKDSTYSLSSTLTLSKADYEKHKVYACEVTHQGLSSPVTKSFNRGEC heavy 1: QVQLVQSGAEVKKPGASVKVSCKASGYTFTDYIMHWVRQAPGQGLEWMGYINPYNDGSKYTEKFQGRVTMTSDTSISTAYMELSRLRSDDTAVYYCARGTYYYGSALFDYWGQGTTVTVSSASTKGPSVFPLAPSSKSTSGGTAALGCLVKDYFPEPVTVSWNSGALTSGVHTFPAVLQSSGLYSLSSVVTVPSSSLGTQTYICNVNHKPSNTKVDKKVEPKSCDKTHTCPPCPAPEAAGGPSVFLFPPKPKDTLMISRTPEVTCVVVDVSHEDPEVKFNWYVDGVEVHNAKTKPREEQYNSTYRVVSVLTVLHQDWLNGKEYKCKVSNKALGAPIEKTISKAKGQPREPQVCTLPPSRDELTKNQVSLSCAVKGFYPSDIAVEWESNGQPENNYKTTPPVLDSDGSFFLVSKLTVDKSRWQQGNVFSCSVMHEALHNHYTQKSLSLSPGGGGGSGGGGSREGPELSPDDPAGLLDLRQGMFAQLVAQNVLLIDGPLSWYSDPGLAGVSLTGGLSYKEDTKELVVAKAGVYYVFFQLELRRVVAGEGSGSVSLALHLQPLRSAAGAAALALTVDLPPASSEARNSAFGFQGRLLHLSAGQRLGVHLHTEARARHAWQLTQGATVLGLFRVTPEIPAGLGGGGSGGGGSREGPELSPDDPAGLLDLRQGMFAQLVAQNVLLIDGPLSWYSDPGLAGVSLTGGLSYKEDTKELVVAKAGVYYVFFQLELRRVVAGEGSGSVSLALHLQPLRSAAGAAALALTVDLPPASSEARNSAFGFQGRLLHLSAGQRLGVHLHTEARARHAWQLTQGATVLGLFRVTPEIPAGL heavy 2: QVQLVQSGAEVKKPGASVKVSCKASGYTFTDYIMHWVRQAPGQGLEWMGYINPYNDGSKYTEKFQGRVTMTSDTSISTAYMELSRLRSDDTAVYYCARGTYYYGSALFDYWGQGTTVTVSSASTKGPSVFPLAPSSKSTSGGTAALGCLVKDYFPEPVTVSWNSGALTSGVHTFPAVLQSSGLYSLSSVVTVPSSSLGTQTYICNVNHKPSNTKVDKKV[human IgG1 Fc with changes left out]GGGGSGGGGSREGPELSPDDPAGLLDLRQGMFAQLVAQNVLLIDGPLSWYSDPGLAGVSLTGGLSYKEDTKELVVAKAGVYYVFFQLELRRVVAGEGSGSVSLALHLQPLRSAAGAAALALTVDLPPASSEARNSAFGFQGRLLHLSAGQRLGVHLHTEARARHAWQLTQGATVLGLFRVTPEIPAGL | ~0.3 | – | ~0.3 | –
